{"source": "paper PMC4344510", "about": "(Nucleic Acids Research, 2015)", "proteins": {"B1": {"name": "Sm domain of Escherichia coli Hfq ([…]) (domain or fragment)", "chain": "not shown"}}, "target": "the molecule itself", "assay": "crystal structure"}
{"protein": "B1", "values": [{"measurement": "stoichiometry N", "value": 6}]}
